According to patent US8242123B2, “Insecticidal methods using 4-amino-5-chloro-thieno[2,3-d]-pyrimidine compounds” (Merial Limited, priority 2006, dated 2012):
Some results were stated once for a whole list of compounds, not compound by compound.

What was measured:
Type in all cases: in vivo
[1] = tested on: Green Peach Aphid (Myzus persicae), Mixed Life Stages; experiment: Green peach aphid, mixed life stages, bell pepper leaf dip test; settings: 100 ppm; after 5 days; bell pepper leaves dipped
Procedure: (§1) In the following tests, if not precised otherwise, the formulated solutions of some of the compound examples were diluted to an active ingredient concentration of 300 ppm, and the diluted solutions were applied in the below mentioned tests.
Bell pepper plants at the first true-leaf stage were infested prior to treatment by placing heavily infested leaves from the main aphid colony on top of the treatment plants. The aphids were allowed to transfer overnight to accomplish an infestation of 30-40 aphids per plant and the host leaves were removed. The infested leaves of the test plants were then dipped and agitated in the test solution for 3 seconds and allowed to dry in a fume hood. Test plants were maintained under fluorescent lighting in a 24-hr photoperiod at 25° C. and 20-40% relative humidity. Aphid mortality on the treated plants, relative to mortality on untreated check plants, was determined after 5 days.
(§2) The biological activity in tables B.1 and B.2 was evaluated on scale range from 0% as showing no biological activity to 100% as having total control. The comparative biological tests were conducted as described above.

[2] = tested on: Cowpea Aphid (aphis craccivora); experiment: Cowpea aphid, sprayed potted cowpea plants; settings: 100 ppm; population reduction recorded after 24, 72 and 120 hours
Procedure: as §1
The active compounds were formulated in 50:50 acetone:water. Potted cowpea plants colonized with 100-150 aphids of various stages were sprayed after the pest population has been recorded. Population reduction was recorded after 24, 72, and 120 hours.

[3] = tested on: Colorado Potato Beetle (Leptinotarsa decemlineata); experiment: Colorado potato beetle, potato leaf dip test; settings: 100 ppm; 5 days after treatment; larvae on dipped potato leaves
Procedure: as §1
Potato plants were utilized for bioassays. Excised plant leaves were dipped into 1:1 acetone/water dilutions of the active compounds. After the leaves had dried, they were individually placed onto water-moistened filter paper on the bottoms of Petri dishes.
Each dish was infested with 5-7 larvae and covered with a lid. Each treatment dilution was replicated 4 times. Test dishes were held at approximately 27° C. and 60% humidity. Numbers of live and morbid larvae were assessed in each dish at 5 days after treatment application, and mortality percentage was calculated.

[4] = tested on: Southern Armyworm (spodoptera eridania), 2nd-3rd Instar Larvae; experiment: Southern armyworm, lima bean foliage dip test; settings: 100 ppm; after 4 days; lima bean foliage dipped
Procedure: as §1
The active compounds were formulated as a 10.000 ppm solution in a mixture of 35% acetone and water, which was diluted with water, if needed.
Sieva lima bean foliage, expanded to the first true leaves, were dipped and agitated in the test solution for 3 seconds and then allowed to dry in a fume hood. The treated plant was then placed in 25-cm plastic perforated zip enclosure bags, ten 2nd-instar larvae were added, and the bags sealed. After 4 days, observations were made of mortality, plant feeding, and of any interference with larval growth.
as §2

[5] = tested on: Silverleaf Whitefly (Bemisia argentifolii); experiment: Silverleaf whitefly, cotton cotyledon dip test; settings: 100 ppm; 3 days after treatment; adults on cotton cotyledons
Procedure: as §1
(§3) The active compounds were formulated in 50:50 acetone:water and 100 ppm Kinetic™ surfactant.
Selected cotton plants were grown to the cotyledon state (one plant per pot). The cotyledons were dipped into the test solution to provide complete coverage of the foliage and placed in a well-vented area to dry. Each pot with treated seedling was placed in a plastic cup and 10 to 12 whitefly adults (approximately 3-5 day old) were introduced. The insects were colleted using an aspirator and an 0.6 cm, non-toxic TygonO tubing (R-3603) connected to a barrier pipette tip. The tip, containing the collected insects, was then gently inserted into the soil containing the treated plant, allowing insects to crawl out of the tip to reach the foliage for feeding. The cups were covered with a reusable screened lid (150 micron mesh polyester screen PeCap from Tetko Inc). Test plants were maintained in the holding room at about 25° C. and 20-40% relative humidity for 3 days avoiding direct exposure to the fluorescent light (24 hour photoperiod) to prevent trapping of heat inside the cup. Mortality was assessed 3 days after treatment of the plants.
as §2

[6] = tested on: Rice Plant Hopper (Nilaparvata lugens); experiment: Rice plant hopper, sprayed rice seedlings; settings: 100 ppm, after 72 hours, 10 adults
Procedure: as §1
(§4) Rice seedlings were cleaned and washed 24 hours before spraying. The active compounds were formulated in 50:50 acetone:water and 0.1% vol/vol surfactant (EL 620) was added. Potted rice seedlings were sprayed with 5 ml test solution, air dried, placed in cages and inoculated with 10 adults. Treated rice plants were kept at 28-29° C. and relative humidity of 50-60%. Percent mortality was recorded after 72 hours.
as §2

[7] = tested on: Rice Green Leafhopper (Nephotettix virescens); experiment: Rice green leafhopper, sprayed rice seedlings; settings: 100 ppm, after 72 hours, 10 adults
Procedure: as §1
as §4, with “acetone:water,” for “acetone:water”

Bean Aphid (aphis fabae) = experiment: Bean aphid, nasturtium plant dip test; settings: 100 ppm; after 3 days; nasturtium plants dipped
Procedure: as §1, §3
Nasturtium plants grown in Metro mix in the 1st leaf-pair stage (variety ‘Mixed Jewle’) were infested with approximately 2-30 laboratory-reared aphids by placing infested cut plants on top of the test plants. The cut plants were removed after 24 hr. Each plant was dipped into the test solution to provide complete coverage of the foliage, stem, protruding seed surface and surrounding cube surface and allowed to dry in the fume hood. The treated plants were kept at about 25° C. with continuous fluorescent light. Aphid mortality was determined after 3 days.

[8] = tested on: Cotton Aphid (aphis gossypii), Mixed Life Stages; experiment: Cotton aphid, mixed life stages, infested cotyledon dip test; settings: 100 ppm; after 5 days; cotton cotyledons dipped
Procedure: as §1
The active compounds were formulated in 50:50 acteone/water and 100 ppm Kinetic™ surfactant
Cotton plants at the cotyledon stage were infested prior to treatment by placing a heavily infested leaf from the main aphid colony on top of each cotyledon. The aphids were allowed to transfer overnight and the host leaf was removed. The infested cotyledons were then dipped and agitated in the test solution for 3 seconds and allowed to dry in a fume hood. Test plants were maintained under fluorescent lighting in a 24-hr photoperiod at 25° C. and 20-40% relative humidity. Aphid mortality on the treated plants, relative to mortality on untreated check plants, was determined after 5 days.
as §2

Structure (SMILES)	mortality (cowpea aphid; population reduction) [2]	mortality compared to untreated controls (Colorado potato beetle) [3]	mortality compared to untreated controls (silverleaf whitefly) [5]	further results
CCc1sc2ncnc(NC(C)c3ccc(OC(F)(F)C(F)F)cc3)c2c1Cl (centres unmarked) [Compound 30]	at least 75%			mortality of green peach aphid in comparison with untreated controls [1]: at least 90%
COC(OC)c1sc2ncnc(NC3CCC(C(C)(C)C)CC3)c2c1Cl (centres unmarked) [Compound 21]		at least 90%		
Cc1sc2ncnc(NC(C)c3ccc(OC(F)(F)C(F)F)cc3)c2c1Cl (centres unmarked) [Compound 15]	at least 75%	at least 90%	at least 90%	mortality in comparison with untreated controls (southern armyworm) [4]: at least 60%
CCC(C)C1CCC(Nc2ncnc3scc(Cl)c23)CC1 (centres unmarked) [Compound 7]	at least 75%	at least 90%	at least 90%	mortality (rice plant hopper) [6]: at least 90%; mortality in comparison with untreated controls (southern armyworm) [4]: at least 60%; mortality (rice green leafhopper) [7]: at least 60%; mortality (bean aphid) (Bean Aphid (aphis fabae)): at least 60%
Cc1sc2ncnc(NC3CCC(CCC(F)(F)F)CC3)c2c1Cl (centres unmarked) [Compound 20]	at least 75%	at least 90%		
Cc1sc2ncnc(NCCc3ccc(OC(F)(F)F)cc3)c2c1Cl [Compound 19]		at least 90%		
CC(Nc1ncnc2scc(Cl)c12)c1ccc(OC(F)F)cc1 (centres unmarked) [Compound 3]	at least 75%	at least 90%	at least 90%	mortality (bean aphid) (Bean Aphid (aphis fabae)): at least 60%
FC(F)(F)CCC1CCC(Nc2ncnc3scc(Cl)c23)CC1 (centres unmarked) [Compound 9]		at least 90%		mortality of cotton aphid (Aphis gossypii, mixed life stages) in comparison with untreated controls [8]: at least 90%
CC(Nc1ncnc2scc(Cl)c12)c1ccc(OC(F)(F)C(F)F)cc1 (centres unmarked) [Compound 1]	at least 75%	at least 90%	at least 90%	mortality (rice plant hopper) [6]: at least 90%; mortality in comparison with untreated controls (southern armyworm) [4]: at least 60%; mortality (bean aphid) (Bean Aphid (aphis fabae)): at least 60%
FC(F)(F)C1CCC(Nc2ncnc3scc(Cl)c23)CC1 (centres unmarked) [Compound 10]	at least 75%			mortality of cotton aphid (Aphis gossypii, mixed life stages) in comparison with untreated controls [8]: at least 90%; mortality (rice plant hopper) [6]: at least 90%; mortality in comparison with untreated controls (southern armyworm) [4]: at least 60%; mortality (rice green leafhopper) [7]: at least 60%
CCc1sc2ncnc(NC3CCC(C(C)CC)CC3)c2c1Cl (centres unmarked) [Compound 33]				mortality of green peach aphid in comparison with untreated controls [1]: at least 90%
CCC(Nc1ncnc2scc(Cl)c12)c1ccc(OC(F)(F)C(F)C(F)(F)F)cc1 (centres unmarked) [Compound 4]	at least 75%	at least 90%	at least 90%	
CCC(C)C1CCC(Nc2ncnc3sc(C)c(Cl)c23)CC1 (centres unmarked) [Compound 18]	at least 75%	at least 90%	at least 90%	
CCc1sc2ncnc(NC3CCC(C(C)(C)C)CC3)c2c1Cl (centres unmarked) [Compound 29]	at least 75%			
CCc1sc2ncnc(NC(C)c3ccc(OC(F)(F)F)cc3)c2c1Cl (centres unmarked) [Compound 31]				mortality of green peach aphid in comparison with untreated controls [1]: at least 90%
FC(F)(F)CCC1CCC(Nc2ncnc3scc(Cl)c23)CC1 (centres unmarked) [Compound 11]	at least 75%		at least 90%	mortality (rice plant hopper) [6]: at least 90%; mortality in comparison with untreated controls (southern armyworm) [4]: at least 60%; mortality (rice green leafhopper) [7]: at least 60%
Cc1sc2ncnc(NC(C)c3ccc(OC(F)(F)F)cc3)c2c1Cl (centres unmarked) [Compound 16]	at least 75%	at least 90%	at least 90%	
CC(C)(C)C1CCC(Nc2ncnc3sc(C(Cl)Cl)c(Cl)c23)CC1 (centres unmarked) [Compound 13]		at least 90%		
CON=Cc1sc2ncnc(NC3CCC(C(C)(C)C)CC3)c2c1Cl (mixture of isomers) [Compound 25]	at least 75%	at least 90%		
Cc1sc2ncnc(NC3CCC(C(C)(C)C)CC3)c2c1Cl (centres unmarked) [Compound 14]	at least 75%	at least 90%		
